Whole data set: some 33,000 sequences, median “E-score (dimensionless, -0.5 to 0.5)” near -0.058, cut for the highest 2% near 0.35. This is one part of the list.
tested on: MvaT; assay: PBM 8-mer E-score (mean of HK and ME arrays) (E-score (dimensionless, -0.5 to 0.5)); higher = stronger relative binding preference; most listed sequences are background and not binding sites
Summary of the method: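 Full-length P. aeruginosa MvaT carrying an N-terminal glutathione S-transferase tag was tested by protein binding microarray following a previously described protocol. Two universal double-stranded 60-mer arrays, ME and HK, were used, each with a constant 25-mer primer region and a variable 35-mer region covering all 8-mers. The rank-based E-score is the mean of the two arrays, parsed with a custom script. Its range runs from -0.5 to 0.5 for each 8-mer.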

Sequence | PBM 8-mer E-score
TGATCGCA | -0.0798
AAGAAAGA | 0.0937
CGGTAATA | 0.246
CTCGGGTC | -0.203
AGGAGGCC | -0.25
GAATATAA | 0.38
ATAGCTTC | -0.0344
GATACTAC | 0.0306
CCCAAAGC | -0.239
TTACGAAA | 0.124
AAGCCATT | 0.0159
AACTATTG | 0.295
AGTAACCC | -0.0792
AGTAGGCA | -0.144
ACGACTCG | -0.114
TCACGACA | -0.105
CCTCTCCG | -0.271
AGTGACAA | -0.0902
AACGGAAT | 0.149
ACAGCCGA | -0.11
AGCCTTTG | -0.166
CGAGCACA | -0.0578
GAATGTAA | 0.232
CGCGCTAA | 0.126
AAACATTC | 0.253

Sequence | PBM 8-mer E-score
GGCGGATA | -0.0643
AGATTAGG | -0.0113
GCCAACCA | -0.114
CGTGCGTA | -0.0579
AGCCGGAA | -0.24
ATTCCAAC | 0.162
GCCCGGCC | -0.376
ACGTAGCA | -0.0174
AAGGTTAA | 0.172
CGACGACC | -0.229
CGCCTTCC | -0.328
AGGGGGCC | -0.286
GCAGATCC | -0.0984
CCACATTC | 0.134
TGACCTAA | -0.0132
AGGTGACT | -0.173
CTTTCCGC | -0.0248
CATTAGCA | -0.00352
ATGGGCGG | -0.157
AATAATTA | 0.463
AAGTATGG | 0.205
ATTAGTAC | 0.245
ATCCTGTG | -0.0959
GATAGACA | -0.141
CCAGTCGG | -0.277

Sequence | PBM 8-mer E-score
CCCAATAG | -0.0152
AGCGTTTC | -0.105
GCGTCCGA | -0.208
GGTAGGTA | -0.0424
CTAAGATC | -0.206
TCGTGCAA | 0.0759
CGCATGAC | -0.169
CCTCTCTC | -0.114
AGTGTCTG | 0.0186
ACTGATGC | -0.116
CATAATCA | 0.227
CCGGCTTC | -0.194
GAGGGTGC | -0.16
AAGTTGAT | 0.217
AAGCTTCG | -0.091
ACTTATTC | 0.229
ACCCGGTC | -0.399
ACTCAAAT | 0.221
ACAACAAC | 0.216
GACTTAAC | 0.128
ACGCTGTG | -0.182
ATATGATA | 0.252
TCAGAGCA | -0.128
GCACGGCA | -0.155
AAATTCCA | 0.0973

Sequence | PBM 8-mer E-score
GGGAGGTA | -0.274
ATAATATA | 0.475
ATCACGTG | 0.0846
CGCTCCAG | -0.173
GAGTGCGC | -0.264
AATTAATA | 0.449
CAACTTAC | 0.321
AGACACCC | -0.101
AATCAAGC | 0.0398
AGCCGCTA | -0.162
CATCAGGA | -0.132
AGGTGTCG | -0.122
CTGGCCCA | -0.264
AAATGTTG | 0.173
TACATGGA | 0.0588
AGAATGCT | -0.213
GAAAAGTC | -0.098
AAGAGAGG | -0.27
ATTATTGA | 0.354
GAGCCTAC | -0.245
ATGAAACG | 0.121
CCCCGTAA | -0.11
CCAGCCAC | -0.0866
ACTTTAGG | 0.085
AAATCGAT | 0.246

Sequence | PBM 8-mer E-score
GTCGGGCA | -0.105
ACCTAGAG | -0.136
AGTAGTTC | 0.141
CAAGCGCC | -0.172
CACAGGAC | -0.18
AGGGTTGC | -0.0957
ACCGGAAC | -0.0433
ACCCGTTG | -0.195
AGACGTTG | -0.186
CCTCTCAG | -0.269
GACTCCGC | -0.328
GGCGCTAA | -0.179
CTTTGCAA | 0.104
CATCCAAA | 0.0181
CGTGCGAC | -0.193
TAGGACCA | -0.0983
CTCAATGA | -0.168
CCCCGTAG | -0.261
GGTTCTCA | -0.114
CACTTCGG | -0.16
AGTGGCAG | 0.0217
ATTATATG | 0.416
CCTCACGA | -0.194
TGCGAAAA | 0.0053
TAACATTA | 0.374

Sequence | PBM 8-mer E-score
AGCAAAGC | -0.133
ACCTACCC | -0.0915
ATCTCACA | 0.072
CCAATATC | 0.194
GTCCGGGA | -0.138
ATAATTCC | 0.254
TAGTTTGA | 0.236
CTCGTACA | -0.139
CACTCGCG | -0.19
CGGGAATC | -0.107
GCTGGGCC | -0.277
TATTCACA | 0.285
AGACGAGG | -0.231
AGTAATTA | 0.421
CCTCCTTA | -0.155
ACCTATGG | -0.149
CTATCCCA | -0.00164
GAGAAACC | -0.0829
AACCGGTG | -0.205
ACGTGTGA | -0.0633
ATAACGCC | 0.0177
ACTGTTCG | 0.0616
ATCGCGTA | 0.157
TAAACGTA | 0.198
AACTCTTC | -0.0929

Sequence | PBM 8-mer E-score
AGACGCCG | -0.312
TAGGGATA | 0.00958
GAAGCCGA | -0.205
ACTTCAGA | 0.117
TAGCGCCA | -0.0897
CAACTGAG | -0.077
GACAACCA | -0.0943
CGGTCAAC | -0.039
CCCTCCGC | -0.368
AATACACA | 0.151
CGGCCCAC | -0.243
GGCATCGA | -0.213
GGAATAAC | 0.219
ATGTGGAA | 0.13
CCTCTTAG | -0.0173
CTGGTTAA | 0.0777
CGTCGGGA | -0.113
CTGGTCGC | -0.276
ATTGGCAA | -0.063
GTAGCGGA | -0.158
TAGAGGAA | 0.0247
ATCACGCA | 0.008
AAAGCGCT | -0.0816
ACGCGGAT | 0.00563
ATTTCCCG | 0.119

Sequence | PBM 8-mer E-score
CCTGTTAA | 0.167
ATAGAACA | 0.152
AAAGGTCT | -0.0713
AGAGTGTA | 0.135
CCGTGTTA | 0.054
ACCTTTAG | -0.137
ACTAAGGC | 0.0788
ATGTACTA | 0.156
CGTCACTA | -0.0977
CCAATCAG | -0.0636
AGCGGCAG | -0.217
CGGCCAAA | -0.0205
GTCGATTA | 0.0975
TCACGTAA | 0.0784
CTGTTAAG | -0.0117
ATTGTTAA | 0.393
CACCGCTA | -0.0488
AGCAAGCA | -0.109
AACTGTGT | 0.00514
GCTTGACA | -0.183
TCCATGAA | -0.006
CGAGCAAC | -0.123
GGTTACCA | -0.288
ACGGCCAT | -0.108
GCCCCCGC | -0.248

Sequence | PBM 8-mer E-score
GACGCTGA | -0.0905
GATGTGTA | 0.148
CCATTGGA | -0.171
CGACGGAC | -0.269
AAAATGAA | 0.226
CTTTGCGC | -0.00212
CATTTCGC | -0.0148
ATCAAGCG | -0.0474
AGATCTTA | 0.134
GCGCATTA | 0.0466
CCGACGGC | -0.119
CGTGATGC | -0.105
CGGGATGC | -0.134
GTTACTCA | 0.0585
CTTGCGCA | -0.0318
CCTTAACG | -0.0169
AAATGCGG | 0.0213
CACCACCA | -0.0616
CGCTTACC | -0.0677
GCCACATA | -0.0576
ACAATGTG | 0.137
GTTTGAAA | 0.192
ACATGCGT | -0.186
CCTTATGA | -0.0312
GGAGCGCA | -0.0948

Sequence | PBM 8-mer E-score
CAAGTTAC | 0.23
CCTTTCAG | -0.162
GGACAGAC | -0.171
CGCGACAC | -0.149
ATAGGCGG | -0.157
CGCTTCCA | -0.144
GTTTGGAA | 0.0376
ATTTTACC | 0.13
CGTGAGCA | -0.129
CAATACCG | 0.0309
ACTTCTCA | 0.0552
GACAGTGC | -0.0231
CGAGGAAG | -0.174
AGTGCGTA | 0.0011
GAAGGATC | -0.274
ACCACGTA | -0.0477
GCGATTAA | 0.184
CGTGTCAA | -0.0234
CAGTCCCG | -0.241
CGTGCTAG | -0.222
GAGGCGTA | -0.211
AACTATAT | 0.349
AGTAGCTG | -0.0936
AAGATTTC | 0.0199
ACCATTTG | -0.00253

Sequence | PBM 8-mer E-score
ATCATCTG | -0.0345
GAACTAAA | 0.338
AGCTTGAA | -0.0413
TCAGACCA | -0.188
CCTGGCAA | -0.122
GGCCTCGA | -0.176
AGCTCCAA | -0.128
AGGCGCGA | -0.0635
GCTTCCCC | -0.258
ATCAACCC | -0.0228
TCAAGGGA | -0.0771
ATTACCGC | 0.16
GTCACTAA | -0.0591
CATTTCCG | -0.024
AAGGGTGC | -0.226
TAGTCTCA | -0.0252
ACCCCACA | -0.211
CTCGGAGC | -0.253
AACCTACT | -0.0157
CAAAAAGA | 0.17
CGTTAGGC | -0.238
ACCCAGAG | -0.187
CTACGACA | -0.167
CCCGCCAG | -0.144
AGAGTTCA | 0.0674

Sequence | PBM 8-mer E-score
CATTTGGA | 0.0487
AACATATA | 0.419
AGGGCTGG | -0.312
CTAAGTTC | 0.232
GACCCGTC | -0.265
CGGGGGGA | -0.266
AATGTCTA | 0.0927
TTGCAAAA | 0.182
GGAGATCC | -0.228
CAAGCAAG | -0.132
AATGTTAA | 0.387
AGACCGCA | -0.125
ACTGCGAT | -0.00892
CACCGACC | -0.165
CCTAGGCG | -0.243
TTACTAAA | 0.312
GTATTCCA | 0.0824
CGAAGTGC | -0.158
CGTGCAGC | -0.137
ATAATGGA | 0.238
ACACAACC | 0.129
GTCAGAAA | 0.0816
CATGATTC | -0.0134
GGCAAGTA | 0.0346
AATAAAAC | 0.341

Sequence | PBM 8-mer E-score
ATACTATG | 0.174
ACATGCTG | 0.0183
GGGGGCCA | -0.312
ATTACTAA | 0.29
ACCCATTC | -0.0842
CTACACAC | -0.042
AATAAGCG | 0.157
CCCGTAGC | -0.212
AATTCACA | 0.206
CAACGTTA | 0.205
GACGGGGC | -0.19
GTATTGGA | 0.112
GATTGAGA | -0.0343
AAGGTTGG | -0.0789
CTTAGTCA | -0.012
AAGCTACG | -0.0717
CCACTCCG | -0.297
GATAGTCC | -0.122
AACGATAC | -0.0307
GCATCGCA | -0.0544
AATTAGAT | 0.284
GCCGAAAC | -0.176
CCACGTAA | -0.141
GCAATGCC | -0.14
CCTAAGAA | -0.00127

Sequence | PBM 8-mer E-score
GTCCCCCA | -0.286
ACCGGATC | -0.183
ATATTCAA | 0.316
GGACAAGA | -0.0939
ATTTTACG | 0.218
CGAATGAG | -0.0483
AGACGAGA | 0.0123
ATAGATCC | 0.0263
ACTGACAT | -0.0302
CCTCTAAC | -0.0962
GGCTAAAA | 0.0463
ACGATCCA | -0.112
TAATAACA | 0.379
GCCATGTA | 0.0494
AACTTTAT | 0.357
CAGTAATC | -0.0621
AGACAAAG | -0.00692
CGCTTACA | 0.0083
GCCCATAA | 0.166
